Measurements: ChEMBL document CHEMBL1157539, “Thousands of chemical starting points for antimalarial lead identification” (Nature, 2010)
The full ranking holds about 13,000 compounds; the median of “IFI” is about 4, and the highest 2% start at about 17. This is one part of the list.

test: GSK_TCMDC: Inhibition Frequency Index (IFI). The number of non-kinase HTS assays where a compound showed > 50 % inhibition, expressed as a percentage of the number of such assays in which the compound was tested (-0 is zero); type: functional

Row | Structure (SMILES) | IFI
1 | Cc1ccccc1Nc1nc(NCCc2ccccc2)nc2ccccc12 | 5.19%
2 | Cc1sc(C)c(CNCCCNc2cc(=O)c3ccccc3[nH]2)c1Br | 2.88%
3 | CC1CCCN(Cc2cc(Cl)cc(Cl)c2O)C1 (centres undefined) | 1.2%
4 | C=Cc1sc(CNCCCNc2cc(=O)c3ccccc3[nH]2)c(C)c1Br | 4.51%
5 | c1cc(CN2CCCCC2)cc(-c2ccc(-c3nc4ccccc4[nH]3)cc2)c1 | -0%
6 | COc1cc2nc(N3CCC(CNC(=O)c4ccc(-c5ccc(C(=O)N(C)C)cc5)cc4)CC3)nc(N)c2cc1OC | 6.48%
7 | COc1ccc(NC(=O)/C=C/c2ccccc2Cl)cc1OCCN1CCC(N2CCN(C)CC2)CC1 | 4.23%
8 | CN1CCC(NC(=O)c2cc(Oc3ccc4c(c3)CCN4C(=O)Nc3cccc(C(F)(F)F)c3)ccn2)CC1 | 4.96%
9 | CN(C)CCN(C)Cc1ccc(-c2ccc(NS(=O)(=O)c3cccc4cccnc34)cc2)cc1 | 5.79%
10 | O=C(NC1CCN(Cc2ccsc2)CC1)c1ccc(-c2cccc(C(F)(F)F)c2)s1 | 16.7%
11 | Nc1nc(N)c2cc(Cc3ccccc3Cl)cnc2n1 | 0.85%
12 | CCc1cc(CNC2CCN(CCc3c(F)cnc4ccc(OC)nc34)CC2)cc2c1OCCO2 | 6.8%
13 | Cc1cccc2nc(-c3cccc(-c4cccc(NC(=O)c5cnn6cccnc56)c4)c3)[nH]c12 | 3.88%
14 | CS(=O)(=O)CCNCc1nc(-c2ccc3ncnc(Nc4ccc(OCc5ccccc5)c(Cl)c4)c3c2)cs1 | 3.68%
15 | CCC(C)(CC)C(=O)n1ncc2c3c(N)nc(N)nc3ccc21 | 5.97%
16 | CCCNCc1ccc(-c2ccc(CN(CC3CCCO3)C(=O)COc3ccccc3Cl)cc2)nc1 (centres undefined) | 1.5%
17 | CN(C)CCOc1ccc(N2CCN(CCCCNC(=O)c3ccc(/C=C/c4cc(Cl)cc(Cl)c4)cc3)CC2)cc1 | 5.36%
18 | CCN(CC)CCN(Cc1ccc(-c2ccc(C(F)(F)F)cc2)cc1)C(=O)Cn1c(SCc2ccc(F)cc2)cc(=O)c2ccccc21 | 7.64%
19 | CNCc1ccc(CN(C)c2nc(N)c3cc(OC)c(OC)cc3n2)cc1 | -0%
20 | N=C(N)NN=Cc1ccc2c(ccc3ccccc32)c1 | 3.73%
21 | COc1cc2c(cc1S(=O)(=O)c1ccc(NC(=O)c3ccc4ccccc4c3)cc1)CCN(C)CC2 | 5.17%
22 | CN(C(=O)c1snnc1-c1ccccc1)C1CCN(CCCCCNC(=O)/C=C/c2ccc(Cl)c(Cl)c2)CC1 | 9.42%
23 | CN1CCN(c2ccnc3ccc(NC(=O)Nc4cccc5c(C#N)cccc45)cc23)CC1 | 0%

Row | Structure (SMILES) | IFI
24 | COc1cc(NC(=O)CCCCCCCCN2CCN(C)CC2)c2ncccc2c1 | 1.5%
25 | CN1c2ccccc2Sc2cc(CNCCSCCNCc3ccc4c(c3)Sc3ccccc3N4C)ccc21 | 5.71%
26 | O=C(Nc1ccc(Cn2ncc(N3CCCNCC3)c(Cl)c2=O)cc1)Nc1ccc(F)cc1[N+](=O)[O-] | 1.37%
27 | N#Cc1c(N)nc(SCC(=O)Nc2cc(C(F)(F)F)ccc2Cl)c(C#N)c1-c1cccs1 | 2.67%
28 | O=C(/C=C/c1ccc(Cl)c(Cl)c1)NCCCCCN1CCC(NC(=O)Nc2ccc(F)c(F)c2)CC1 | 6.67%
29 | N#Cc1cccc(CN2CCCN(Cc3ccc(C(=O)Nc4ccc(Cl)cc4)cc3)CC2)c1 | 7.87%
30 | COc1ccc(-c2ccc(CNC(=O)c3ccc(C#N)cc3)c(F)c2)cc1CN1CCCN(C)CC1 | 5%
31 | COc1ccc(NC(=O)Nc2ccc(Nc3nc(C)cc(N(C)C)n3)cc2)cc1 | 5.88%
32 | O=C(Nc1ccccc1)c1ccc(-c2cc3ccncc3cc2OC2CCNCC2)s1 | 7.89%
33 | Cc1cc2[nH]c(-c3ccc(C(=O)NCCCN4CCN(c5cccc(Cl)c5)CC4)cc3)nc2cc1Cl | 0.78%
34 | O=C1NC(c2ccc(N3CCCCCC3)cc2)Nc2ccccc21 (centres undefined) | 5.36%
35 | CO/C(=C\C=C/c1cc2cc(Cl)c(Cl)cc2[nH]1)C(=O)NC1CC(C)(C)N(C)C(C)(C)C1 | 12.9%
36 | Nc1nc2c(cnn2CCCCCCCP(=O)(O)O)c(=O)[nH]1 | -0%
37 | NCc1ccc(CNCc2ccc(-c3ccc(-c4nc5cc(C(F)(F)F)ccc5[nH]4)s3)cc2)cc1 | 16.8%
38 | COC(=O)c1c(C#N)c(OC)cc(O)c1CSC[C@H](Nc1nc(-c2ccc([N+](=O)[O-])cc2)cs1)C(=O)NCCN1CCCCC1 | 2.38%
39 | Cn1ncc2c3c(CCN4CCC(NCc5cc6c(cn5)OCCO6)CC4)c(Cl)cnc3ccc21 | 5.22%
40 | COCCCNC(=N)c1ccc(NC(=O)c2ccc(C(=O)Nc3ccc(C(=N)NCCCOC)cc3)cc2)cc1 | 2.21%
41 | CCCCCCCc1c(C)[nH]c2ccc(F)cc2c1=O | 0.84%
42 | CO/C(=C\C=C\c1cc2cc(Cl)c(Cl)cc2[nH]1)C(=O)NCCCN1CCN(c2cccc(OC)c2)CC1 | 10.6%
43 | N=C1NC(c2ccccc2)(c2ccccc2)C(=O)N1C1CCCCC1 | 4.85%
44 | CCCCCCOc1ccc(C(=O)N(Cc2ccccc2)c2c(-c3ccccc3)nc3cc(C)ccn23)cc1 | 4.73%
45 | O=C(Nc1cccc(CN2CCCN(Cc3ccccc3)CC2)c1)c1ccc(-c2ccccc2)cc1 | 10.7%
46 | O=C(NCCCN1CCC(N2CCCCC2)CC1)C1=Cc2cc(Br)ccc2OC1 | 11.4%

Row | Structure (SMILES) | IFI
47 | Cc1cccc2nc(-c3cccc(-c4cccc(NC(=O)C5CC(=O)Nc6ccccc65)c4)c3)[nH]c12 (centres undefined) | 2.61%
48 | Cc1cc(CNCC2CCC(CNCCCc3ccccc3)CC2)ccc1O (centres undefined) | 2.21%
49 | C=CCOc1ccc(C(=O)Nc2nonc2-c2ccc(OC)c(OC)c2)cc1 | 3.08%
50 | Fc1ccc(CN2CCN(c3ncnc4cc(-c5ccccc5)sc34)CC2)cc1 | 11.5%
51 | CO/C(=C\C=C\c1cc2cc(Cl)c(Cl)cc2[nH]1)C(=O)NCCCN1CC(C)N(C)CC1C (centres undefined) | 11.4%
52 | Cc1ccc2nc3ccccc3c(NCCN3CCN(C)CC3)c2c1 | 2.96%
53 | O=C(Nc1ccc(-c2cccc(-c3nc4ccccc4[nH]3)c2)cc1)Nc1ccsc1 | 5.94%
54 | CN(C)Cc1ccc(-c2ccc3c(Nc4ccc(Cl)cc4F)ccnc3c2)o1 | 8.7%
55 | CS(=O)(=O)Cc1ccc(Nc2nccc(-c3c(-c4cccc(NC(=O)C5CCCCC5)c4)nn4ncccc34)n2)cc1 | 5.76%
56 | Cn1c(=O)n(C)c2cc(CNCCNc3ccnc4cc(Cl)ccc34)ccc21 | -0%
57 | CC(=O)c1ccccc1C(=O)N1CCOc2ccc(C(O)C(c3ccccc3)c3ccccc3)cc2C1 (centres undefined) | 0%
58 | CCCOc1cccc(C(=O)N[C@@H](Cc2ccccc2)[C@H](O)CNCc2ccccc2OC)c1 | 8.64%
59 | COc1ccc2c(NN=Cc3ccc(Cl)cc3)ccnc2c1 | 2.26%
60 | O=C(N[C@H]1CCN(Cc2ccc(OCCN3CCNCC3)c(Cl)c2)C1)c1ccc(Cl)c(Cl)c1 | 6.67%
61 | COc1cc(NC(=O)N2CCc3ccc(OCCN(C(C)C)C(C)C)cc32)cc(C(F)(F)F)c1 | 2.9%
62 | CCOC(=O)c1c(NC(=O)c2ccccc2)sc2c(O)c(CN(CC)CC)ccc12 | 2.17%
63 | c1ccc(Oc2ccc(Nc3nc(NCCc4c[nH]cn4)nc(NC4CCCC4)n3)cc2)cc1 | 2.14%
64 | NC1CCN(Cc2cccc(-c3csc(-c4nc5ccccc5[nH]4)c3)c2)C1 (centres undefined) | 1.37%
65 | CCc1c(C(=O)NC2CCC(N3CCC(c4ccccc4OC)CC3)CC2)[nH]c2ccc(OC)cc12 (centres undefined) | 6.45%
66 | CCCCCC1c2[nH]c3ccccc3c2CCN1C(=O)OCc1ccccc1 (centres undefined) | 3.55%
67 | CN1CCN(CCCN(Cc2ccc(-c3ccc(CNCCc4ccccc4)cc3)cc2)C(=O)c2cccs2)CC1 | 9.03%
68 | CCCCCCNC(=O)C1Cc2c([nH]c3ccc(C)cc23)C2(CCN(CCc3ccccc3)CC2)N1 (centres undefined) | 3.5%
69 | Cc1cc(=O)oc2c1ccc1oc(C(O)c3ccc(Cl)cc3)c(C)c12 (centres undefined) | 2.86%

Row | Structure (SMILES) | IFI
70 | Cc1c(C)n(C2CCCC2)c2ncnc(OC3CCN(CC(=O)NC4CC4)CC3)c12 | 6.1%
71 | FC(F)(F)c1ccc2[nH]c(-c3ccc(-c4ccc(CNCC5CCCO5)cc4)cc3)nc2c1 (centres undefined) | 5.71%
72 | Fc1ccc2[nH]c(-c3cccc(-c4cccc(CNCCN5CCNCC5)c4)c3)nc2c1 | 7.92%
73 | O=C(NCC(NCCCNc1cc(=O)c2ccccc2[nH]1)c1cc(Br)cc(Br)c1)C1=CCCC1 (centres undefined) | 4.58%
74 | COc1ccc(Nc2nccc(N3CCC(NC(=O)Nc4ccc5c(c4)OCO5)C3)n2)cc1 (centres undefined) | 2.99%
75 | Cc1nc(-c2ccncc2)sc1C(=O)Nc1ccc(Cl)cc1C(=O)Nc1ccc(Cl)cc1 | -0%
76 | CCOc1cc(C=Cc2nc(O)c3ccccc3n2)cc(Cl)c1O | 0%
77 | CCN(CC)CCN(Cc1ccc(-c2ccc(C(F)(F)F)cc2)cc1)C(=O)Cn1c(CCc2cccc(F)c2F)cc(=O)c(C)c1C | 5%
78 | CC(C)NC(=O)c1cccc(-c2ccc(OCCN3CCCC3c3cc4ccccc4[nH]3)cc2)c1 (centres undefined) | 1.82%
79 | Cc1cc(N/N=C/c2ccc([N+](=O)[O-])cc2)c2ccc(F)cc2n1 | 0.75%
80 | CC(C)CCNC(=O)C1Cc2c([nH]c3cc(Cl)ccc23)C2(CCN(CCc3ccccc3)CC2)N1 (centres undefined) | 2.8%
81 | COc1ccc(-c2onc(C(F)(F)F)c2-c2cc3ccccc3o2)c(O)c1 | 4.8%
82 | COc1ccc2ccccc2c1C=NN=c1cc[nH]c2ccc(F)cc12 | 0%
83 | COc1ccc2nc(C)cc(Nc3ccc(Oc4ccc5ccccc5c4Cl)c(Cl)c3)c2c1 | 2.19%
84 | CCCCCCn1c(Sc2ccc(C#N)c([N+](=O)[O-])c2)nnc1-c1cccc(Cl)c1 | 5.67%
85 | COc1ccc2nccc([C@@H](O)CN3CCC(NC(=O)c4nc(Cl)c(Cl)c(N)c4Cl)CC3)c2c1 | 0.75%
86 | O=S(=O)(Nc1cccc(CCN2CCC(N3CCCCC3)CC2)c1)c1ccc(Cl)cc1 | 3.23%
87 | COc1c(C2CCN(CCCCNC(=O)c3ccc(-c4ccc(Cl)cc4)c(O)c3)CC2)ccc2c1CCCC2 | 9.09%
88 | COc1cccc2cc(C(=O)N[C@@H](CC(C)C)C(=O)N[C@H](/C=N/N(C)C(=O)OC(C)(C)C)CC(=O)OC(C)(C)C)oc12 | 4.59%
89 | CC=CCON1C(=N)NC(=N)NC1(C)C | 1.5%
